# Read counts are not given, so values of variants with three or more changes are uncertain.
# B1: LINE1-full (parent)
# chain: UACGUAGGUGGUUUUCCCCUGAUAGUGCUAAGGGGGCCUGGAAGUUUGGACUGGGCAGAGCUCAACACAGCGUGGCAAAGUGGCUGUGGCUAGACUGCCUCUCUGGAUUCCUCGUCACUCAGCAGGGCAUCUCUGAGAGAAAUGCC
# Variants of: B1
# Assay: self-cleavage, relative activity (ratio to wild type); higher = more cleavage; in vitro, sequencing; the parent is a self-cleaving ribozyme
row,Variant,self-cleavage
1,UACGUAGGUGGUUUUCCCCUGAUAGUGCUAAGGGGGCCCGGAAGUUUGGACUGGGCAGAGCUCAACACAGCGUGGCAAAGUGGCUGUGGCUAGACUGCCCCUCUGGAUUCCUCGUCACUCAGCAGGUCAUCUCUGAGAGAAGUGCC [U39C U100C G127U A142G],2.71
2,UACGUAGGUGGUUUUCCCCUGAUAGUGCUAAGGGGGCCUGGAAGUAUGGACUGGGCGGAGCUCAACACAGCGUGGCAAAGUGGUUGUGGCUAGACUGCCUCUCUGGAUUCCUCGUCACUCAGCAGGGCAUCUCUGAGAGAAAUGCC [U46A A57G C84U],0.09
3,UACGUAGGUGGUUUUCCCCUGAUAGUGCUAAGGGGGUCUGGGAGUUUGGACUGGGCAGAGCUCAACACAGCGUGGCAAAGUGGCUGUGGCUAGACUGCCUCUCUGGAUUCCCCGUCACUCAGCAGGGCAUCUCUGAGAGAAAUGCC [C37U A42G U112C],1.59
4,UACGUAGGUGGCUUUCCCCUGAUAGUGCUAAGGGGGCCUGGAAGUUUGGACUGGGCAGAGCUCAGCACAGCGCGGCAAAGUGGCUGUGGCUAGACUGCCUCUCAGGAUUCCUCGUCACUCAGCAGGGCAUCUCUGAGAGAAAUGCC [U12C A65G U73C U104A],0
5,UAAGUAGGUGGUUUUCCCCUGAUAGUGCUAAGGGGGCCUGGAAGUUUGGACUGGGCAGAGCUCAACACAGCGCGGCAAAGUGGCUGUGGCUAGACUGCCUCUCUGGAUUCCUCGUCACUCAGCAGGGCAUCUCUGAGAGAGAUGCC [C3A U73C A141G],1.31
6,UACGUAGGUGGUUUUCCCCUGAUAGUGCUAAGGGGGCCUGGAAGUUUGGACUGGGCAGAGCUCAACACAGCGUGGCAAAGUGGCUGUGGCUAGACUGCCUCUCGGGACUCCUCGUCACUCAGCAGGGCAUCUCUGUGAGAGAUGCC [U104G U108C A136U A141G],0
7,UACGUAGGUGGUUUUCCCCUGAUAGUUCUAAGGGGGCCUGGUAGUUUGGACUGGGCAGAGCUCAACACAGCGUGGCAAAGUGGCUGUGGCUAGACUGCCUCUCUGGAUUCCUCGUCACUCAGCAGGGCGUCUCUGAGAGAAAUGCC [G27U A42U A129G],0.7
8,UACGUAGGUGGUUUUCCCCUGAUAGUGCUAAGGGGGCCUGGAAGUUUGGACUGGGCAGAGCUCAACACAGCGUGGCAAAGUGGCCGUGGCUAGACUGCCUCUCUGGAUUCCUCGCCUCUCAGCAGGGCAUCUCUGAGAGAGAUGCC [U85C U115C A117U A141G],0.42
9,UACGUAGGUGGUUUUCCCCUGAUAGUGCUAAGGGGGCCUGGAAGUCUGGACUGGGCAGAGCUCAACACGGCGUGGCAAAGUGGCUGUGGCUAGACUGCCUCUCCGGAUUCCUCGUCACUCAGCAGGGCAUCUCUGAGAGAAAUGCC [U46C A69G U104C],0
10,UACGUAGGUGGUUUUCCCCCGAUAGUGCUAAGGGGGCCUGGAAGUUUGGACGGGGCAGAGCUCAACACAGCGUGGCAAAGUGGCUGUGGCUAGACUGCCUCUCUGGAUUCCUCGUCACUCAGCAGGGCAUCUCUGGGAGAAAUGCC [U20C U52G A136G],2.78
11,UACGUAGGUGGUUUUCCCCUGAUAGUGCUAAGGGGGCCUGGAAGUUCGGACUGGGCAGAGCUCAACACAGCGUGGCAAAGUGGCUGUGGCAAGACUGCCUCUCUGGAUUCCUCGUCACUCAGCAGGGCGUCUCUGAGAGAAAUGCC [U47C U91A A129G],0.74
12,UACGUAGGUGGUUUUCCCCUGAUAGUGCUAAGGGGGUCUGGAAGUUUGGACUGGGCAGAGCUCAACACAGCGUGGCGGAGUGGCUGUGGCUAGACUGCCUCUCUGGAUUCCUCGACUCUCAGCAGGGCAUCUCUGAGAGAAAUGCC [C37U A77G A78G U115A A117U],2.25
13,UACGUAGGUGGUUUUCCCCUGGUAGUGCUAAGGGGGCCUGGAAGUUUGGGCUGGGCAGAGCUCAACACAGCGUGGCAAAGUGGCUGUGGCUAGACUGCCUCUCUGGAUUCCUCGUCACCCAGCAGGGCAUCUCUGAGAGAAGUGCC [A22G A50G U119C A142G],1.08
14,UACGUAGGUGGUUUCCCCCUGAUAGUGCUAAGGGGGCCUGGAAGUUUGGACUGGGCAGAGCUCAACACAGCGUGGCAAAGUGGCUGUGGCUAGACUGCCUCUCUGGAUCCCUCGUCCCUCAGCAGGGCAUCUCUGUGAGAAAUGCC [U15C U109C A117C A136U],2.47
15,UACGUAGGUGGUUUUCCCCUGACAGUGCUAGGGGGGCCUGGAAGUUUGGACUUGGCAGAGCUCAACACAGCGUGGCAAAGUGGCUGUGGCUAGACUGCCUCUCUGGAUUCCUCGUCACUCAGCAGGGCAUCUCUGAGAGAAAUGCC [U23C A31G G53U],1.17
16,UACGUAGGUGGUUUUCCCCUGAUAGUGCUAAGGGGGCCUGGAAGUUUGGACUGGGCAGAGCUCAACACAGCGUGGCUAAGUGGCUGUGGCUAGACUGCCUCUCUGGAUUCCUCGUCACUCAGCAGGACAUCUCUGAGUGAAAUGCC [A77U G127A A138U],1.14
17,UACGUAGGUGGUUUUCCCCUGAUAGUGCUAAUAGGGCCUGGAAGUUUGGACUGGGCAGAGCUCAACACAGCGUGGCAAAGUGGCUGUGGCUAGACUGCCUCUCUGGAUUCCCCGUCACUCAGCAGGGCAUCUCUGAGAGAAAUGCC [G32U G33A U112C],0.79
18,UACGCAGGUGGUUUUCCCCUGUUAGUGCUAAGGGGGCCUGGAAGUUUGGACUGGGCAGAGCUCAACACAGCGUGGCAAAGUGGCUGUGGCUAGACUGCCUCUCUGGAUUCCUCGUCACUCAGCAGGGCAUCUCUGAGAGAAACGCC [U5C A22U U143C],1.33
19,UACGUGGGUGGUUUUCCCCUGAUAGUGCUAAGGGGGCCUGGAAGUUUGGACUGGGCAGAGCUCAACACAGCGUGGCAAGAUGGCUGUGGCUAGACUGCCUCUCUGGAUUCCUCGUCACUCGGCUGGGCAUCUCUGAGAGAAAUGCC [A6G A79G G80A A121G A124U],1.73
20,UACGUAGGUGGUUUUCCCCUGAUAGUGCUGAGGGGGCCUGGAAGUUUGGACUGGGCAGAGCUCAACACAGCGUGGCAAAGCGGCUGUGGCUAGACUGCCUCUCUGGAUUCCUCGUCACUCAGCAGGGCAUCUCUGAGAGAAGUGCC [A30G U81C A142G],0.92

row,Variant,self-cleavage
1,UACGUAGGUUGUUUUCCCCUGAUAGUGCUAAGGGGGCCUGGAAGUUUGGACUGGGCAGAGCUCAACACAGCGUGGCAAAGUGGCUGUGGCUAGGCUGCCUCACUAGAUUCCUCGUCACUCAGCUGGGCAUCUCUGAGAGAAAUGCC [G10U A94G U102A G105A A124U],0.2
2,UACGUAGGUGGUUUUCCCCUGAUAGUGCUAAGGGGGCCUGGGAGUUUGGACUGGGCAGAGCCCAACACAGCGUGGCAAAGUGGCUGUGGCUAGACUGCCCCUCUGGAUUCCUCGUCACUCAGCUGGGCAUCUCUGAGAGAAAUGCC [A42G U62C U100C A124U],0.06
3,UACGUAGGUGGUUUUCCCCUGAUAGUGCUAAGGGGGCCUGGAAGUUUUGACUGGGCAGAGCUCAACACGGCGUGGCAAAGUGGCCGUGGCUAGACUGCCUCUCUGGAUUCCUCGUCACUCAGCAGGGCAUCUCUGAGAGAAAUGCC [G48U A69G U85C],1.1
4,UACGUAGGUGGUUUCCCCCUGAUAGUGCUAAGGGGGCCUGGAAGCUUGGACUAGGCAGAGCUCAACACAGCGUGGCAAAGUGGCCGUGGCUAGACUGCCUCUCUGGAUUCCUCGUCACUCAGCAGGGCAUCUCUGAGAGAAAUGCC [U15C U45C G53A U85C],0.18
5,UACGUAGGUGGUUUCCCCCUGAUAGUGCUAAGGGGGCCUGGAAGUUUGGACUGGGCUGAGCCCAACACAGCGUGGCAAAGUGGCUGUGGCUAGACUGCCUCUCUGGAUUCCUCGUCUCUCAGCAGGGCAUCUCUGAGAGAAAUGCC [U15C A57U U62C A117U],0.1
6,UACGUAGGUGGUUUUCCCCCGAUAGUGCUAAGGGGGCCUGGAAGUUUGGACUGGGCAGAGCUCAACACAGCGUGGCAAAGUGGCUGUGGCUAGACUGCCUCUUUGGAUUCCUCGUCACCCAGCAGGGCAUCUCUGAGAGAAAUGCC [U20C C103U U119C],1.61
7,UACGUAGGUGGUUUUCCCCUGAUAGUGCUAAGGGGGCCUGGAAGUUUGGACUGGGCAGGGCUCAGCACAGCGUGGCAAAGUGGCUGUGGCUAGACUGCCUCUCAGGAUUCCUCGUCACUCAGCAGGGCAUCUCUGAGAGAAAUGCC [A59G A65G U104A],0
8,UACGUAGGUGGUUUUCCCCUGAUAGUGCUAAGGGGGCCUGGAAGUUUGGACUGGGCAGAGCUCAACACAGCGAGGCAAGGUGGCUGUGGCUAGACUGCCUCACUGGAUUCCUCGUCACUCAGCAGGGCAUCUCUGAGAGAAAUGCC [U73A A79G U102A],1.08
9,UACGUAGGUGGUUUUCCCCUGACAGUGCUAAGGGGGCCUGGAAGUUUGGACUGGGCAGAGCUCAACACAGCGUGGCAAUGUGGCUGUGGCUAGACUGCCUCUCUGGAUUCCUCGUCACUCAGCAGGGCAUCUCCGAGAGAAAUGCC [U23C A79U U134C],2.35
10,UACGUAGGUGGUUUUCCCCUGAUAGUGCUAAGGGGGCCUGGAAGUUUGGGCUGGGCAGAGCUCAACACAGCGUGGCAAAGUGGCUGUGGCUGGACUGCCUCUCAGGAUUCCUCGUCACUCAGCAGGGCAUCUCUGUGAGAAAUGCC [A50G A92G U104A A136U],0
11,UACGUAGGUGGUUUUCCCCUGAUAGUGCUAAGGGGGCCUGGAAGUUUGGACUGGGCUGAGCUCAGCACAGCGAGGCAAAGUGGCUGUGGCUAGACUGCCUCUCUGGAUUCCUCGUCACUCGGCAGGGCAUCUCUGAGGGAAAUGCC [A57U A65G U73A A121G A138G],0
12,UACGUAGGAGGUUUUCCCCUGAUAGUGCUAAGGGGGCCUGGAAGUUUGGACUGGGCAGAGCCCAACACAGCGUGGCAAAGUGGCUGUGGCUAGACUGCCUCUCUGGAUUCCUCGUCACUCGGCAGGGCAUCUCUGAGAGAAAUACC [U9A U62C A121G G144A],0
13,UACGUAGGUAGUUUUCCCCUGAUAGUGCUAAGGGGGCCUGGAAGUUUGGACUGGGCAGAGCUCAACACAGCGUGGCGAAGUGGCUGUGGCUAGACUGCCUCUCUGGAUUCCUCGUCACUCAGCAGGGCAUCUCUAAGAGAAAUGCC [G10A A77G G135A],1.91
14,UACGUAGGUGGUCUUCCCCUGAUAGUGCUAAGGGGGCCUGGAAGUUUGGACCGGGCAGAGCUCAACACAGCGUGGCAAAGUGGCUGUGGCUAGACUGCCUCUCUGGAUUCCUCGUCUCUCAGCAGGGCAUCUCUGAGAGGAAUGCC [U13C U52C A117U A140G],0.88
15,UACGUAGGUGAUUUUCCCCUGAUAGUGCCAAGGGGGCCUGGAAGUUUGGGCUGGGCAGAGCUCAACACAGCGUGGCAAAGUGGCUGUGGCUAGACUGCCUCUCUGGAUUCCUCGUCACUCAGCAGGGCAUCUCUGAGAGAAAUGCC [G11A U29C A50G],1.35
16,UACGCAGGUGGCUUUCCCCUGAUAGCGCUAAGGGGGCCUGGAAGUUUGGACUGGGCAGAGCUCAACACAGCGUGGCAAAGUGGCUGUGGCUAGACUGCCUCUCUGGAUUCCUCGUCACUCAGCAGGGCACCUCUGAGAGAAAUGCC [U5C U12C U26C U130C],0.74
17,UACGUAGGUGGUCUUCCCCUGAUAGUGCUAAGGGGGCCUGGAAGAUUGGACUGGGCAGAGCUCAACACAGCGUGGCAAAGUGGCUGUGGCUAGACUGCCUCUCUGGAUUCCUCGUCACUCAGCUGGGCAUCUCUGAGAGAAAUGCC [U13C U45A A124U],0.76
18,UACGUAGGUGGUUUUCCCCUGAUAAUGCUAAGGGGGCCUGGAGGUUUGGACAGGGCAGAGCUCAACACAGCGUGGCAAAGUGGCUGUGGCUAGACUGCCCCUCUGGAUUCCUCGUCACUCAGCAGGGCAUCUCUGAGAGAAAUGCC [G25A A43G U52A U100C],1.65
19,UACGUAGGUGGUUUUCCCCUGAUAGUGCUAUGGGGGCCUGGAAGUUUGGACUGGGCAGAGCCCAACACAGCGUGGCAAAGUGGCUGUGGCUAGACCGCCUCUCUGGAUUCCUCGUCACUCAGCAGGGCAUCUCUGAGAGAAAUGCC [A31U U62C U96C],0
